The other results are listed elsewhere or left out. The energies were worked out here from pooled read counts, against the library average; single values are noisy.

In the experiment the target is T1, Pho4 (S. cerevisiae) (UniProt P07270).
T1 sequence: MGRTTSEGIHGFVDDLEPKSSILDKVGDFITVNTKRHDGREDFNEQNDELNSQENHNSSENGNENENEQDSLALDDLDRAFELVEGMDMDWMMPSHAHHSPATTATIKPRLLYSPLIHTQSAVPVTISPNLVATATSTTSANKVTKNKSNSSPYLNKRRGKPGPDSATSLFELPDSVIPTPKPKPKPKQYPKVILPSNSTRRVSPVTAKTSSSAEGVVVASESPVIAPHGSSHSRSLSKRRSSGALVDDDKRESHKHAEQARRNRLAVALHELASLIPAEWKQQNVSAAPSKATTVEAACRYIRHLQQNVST
The experiment in a line: relative binding free energy (BET-seq); higher = weaker binding. To be noted: reference: library average.
Take CAGTGCACGTGGTTAT: the “relative binding free energy” value was -0.07 kcal/mol.

Consider TTTTACACGTGCTGGT, for which the “relative binding free energy” value came out at 0.05 kcal/mol.

Turning to GAAAGCACGTGTGTGT, the “relative binding free energy” value was 0.09 kcal/mol.

Take AACGGCACGTGTGTGT: the “relative binding free energy” value was -0.12 kcal/mol.

As for GGTGGCACGTGCACGT, the “relative binding free energy” value is -0.08 kcal/mol.

For GGTGCCACGTGTGAAG, the “relative binding free energy” value worked out at 0.04 kcal/mol.

On to CGGCACACGTGGTGTT, for which the “relative binding free energy” value was 0 kcal/mol.

As to GGTTACACGTGACGTT, the “relative binding free energy” value came out at 0.36 kcal/mol.

Take TGGATCACGTGGTGCT: the “relative binding free energy” value was 0.16 kcal/mol.

Take TGTATCACGTGGTACC: the “relative binding free energy” value was 0.22 kcal/mol.

In the case of TAGTTCACGTGCTTAT, the “relative binding free energy” value came to 0.26 kcal/mol.

As to AGGCTCACGTGGGGGG, the “relative binding free energy” value was 0.08 kcal/mol.

With TGTTGCACGTGGCAAT, the “relative binding free energy” value is -0.14 kcal/mol.

In the case of TTATTCACGTGTTCGG, the “relative binding free energy” value turned out to be 0.27 kcal/mol.

With AATGCCACGTGGGGTA, the “relative binding free energy” value is -0.25 kcal/mol.

As for TTTTACACGTGAAGAT, the “relative binding free energy” value amounted to 0.36 kcal/mol.

For GTAAGCACGTGGGAGC, the “relative binding free energy” value was -0.05 kcal/mol.

Turning to TGTGTCACGTGGGGGG, the “relative binding free energy” value is -0.05 kcal/mol.

As to CGATTCACGTGATTTT, the “relative binding free energy” value stood at 0.29 kcal/mol.

Consider GTGCGCACGTGGTGAG, for which the “relative binding free energy” value is -0.03 kcal/mol.

Regarding TAAATCACGTGGAGTG, the “relative binding free energy” value is 0.12 kcal/mol.

On to GTCGGCACGTGAAAGT, for which the “relative binding free energy” value was determined as 0.18 kcal/mol.

As for TGGCGCACGTGTGGAC, the “relative binding free energy” value was determined as 0.01 kcal/mol.

On to TGGGTCACGTGTCAGG, for which the “relative binding free energy” value was found to be 0.19 kcal/mol.

In the case of GTCGTCACGTGATTGT, the “relative binding free energy” value is 0.22 kcal/mol.

Turning to ATGGGCACGTGTGATA, the “relative binding free energy” value is -0.07 kcal/mol.

In the case of GGGGCCACGTGGAGCG, the “relative binding free energy” value is -0.06 kcal/mol.

With TTTGGCACGTGATCTG, the “relative binding free energy” value was -0.05 kcal/mol.

With TCGCACACGTGTGGGT, the “relative binding free energy” value turned out to be 0.05 kcal/mol.

Regarding ATATTCACGTGATGGA, the “relative binding free energy” value turned out to be 0.36 kcal/mol.

On to TGACGCACGTGGGGTT, for which the “relative binding free energy” value was -0.22 kcal/mol.

As for TTTATCACGTGCTAGT, the “relative binding free energy” value came out at 0.1 kcal/mol.

As to CGTGTCACGTGTCGGG, the “relative binding free energy” value amounted to 0.12 kcal/mol.

As to GTCGGCACGTGTCGTT, the “relative binding free energy” value is 0 kcal/mol.

Regarding GTATGCACGTGAGTTT, the “relative binding free energy” value amounted to 0.25 kcal/mol.

In the case of TTGATCACGTGGGTAA, the “relative binding free energy” value turned out to be 0.05 kcal/mol.

As to AATAGCACGTGTCTGT, the “relative binding free energy” value is -0.02 kcal/mol.

On to TGTGACACGTGGAGGG, for which the “relative binding free energy” value is -0.01 kcal/mol.

As to GTACGCACGTGGTCGG, the “relative binding free energy” value was -0.17 kcal/mol.

AGCCGCACGTGGTTGT: the “relative binding free energy” value was -0.08 kcal/mol.

Consider GTAGGCACGTGGGATT, for which the “relative binding free energy” value is -0.12 kcal/mol.

For TATGCCACGTGGGTGA, the “relative binding free energy” value was -0.12 kcal/mol.

GTGTGCACGTGTTAGC: the “relative binding free energy” value is -0.01 kcal/mol.

Consider TGTGTCACGTGGTCTC, for which the “relative binding free energy” value was 0.11 kcal/mol.

Take CTTTTCACGTGTAGAG: the “relative binding free energy” value amounted to 0.23 kcal/mol.

With TGTAGCACGTGCGGTG, the “relative binding free energy” value is -0.16 kcal/mol.

Turning to GGGCTCACGTGGTGAG, the “relative binding free energy” value stood at 0.2 kcal/mol.

Turning to TGGCGCACGTGCAGGT, the “relative binding free energy” value was -0.04 kcal/mol.

Take GAGGGCACGTGGGTTC: the “relative binding free energy” value is -0.18 kcal/mol.

On to CGGTGCACGTGAGTGA, for which the “relative binding free energy” value came to 0.23 kcal/mol.

Turning to GGTGCCACGTGGGCAT, the “relative binding free energy” value was -0.13 kcal/mol.

Regarding TTAGACACGTGTGGGT, the “relative binding free energy” value was 0.02 kcal/mol.

With TAATGCACGTGATTGA, the “relative binding free energy” value was found to be 0.17 kcal/mol.

Consider ATTGTCACGTGATGTT, for which the “relative binding free energy” value is 0.27 kcal/mol.

Take TGATTCACGTGTTTAC: the “relative binding free energy” value was found to be 0.27 kcal/mol.

Consider ATTTGCACGTGAGGCA, for which the “relative binding free energy” value is 0.26 kcal/mol.

Turning to TAAGGCACGTGACTGG, the “relative binding free energy” value is -0.01 kcal/mol.

For the sequence TGGAGCACGTGGGTCA, the “relative binding free energy” value was -0.24 kcal/mol.

Take AGAATCACGTGTGTTC: the “relative binding free energy” value was determined as 0.25 kcal/mol.

Take ATATGCACGTGTGATT: the “relative binding free energy” value is 0.04 kcal/mol.

TGTGTCACGTGTATAT: the “relative binding free energy” value was determined as 0.17 kcal/mol.

Turning to AAGTGCACGTGCGGAG, the “relative binding free energy” value was -0.09 kcal/mol.

For the sequence TCAGGCACGTGTGGAA, the “relative binding free energy” value is -0.1 kcal/mol.

For the origin of these results see the BET-seq Pho4 binding data (Le et al. 2018).
